From PMC12820563, “FoxP3 forms a head-to-head dimer in vivo and stabilizes its multimerization on adjacent microsatellites”
The list shows a part of the results.

biological target: T1, MBP-FoxP1dN (Mus musculus, UniProt P58462 326-579); assay: PD-seq (MBP pull-down with sequencing); 20 mM Tris-HCl pH 7.5, 100 mM NaCl, 1.5 mM MgCl2, 0.4 uM protein, 0.1 uM dsDNA library, 30 min, room temperature, amylose pull-down; high values mean tight binding; details: protein: recombinant; tags: His6-MBP; chain copies: 2; dsDNA, one strand shown
T1 sequence: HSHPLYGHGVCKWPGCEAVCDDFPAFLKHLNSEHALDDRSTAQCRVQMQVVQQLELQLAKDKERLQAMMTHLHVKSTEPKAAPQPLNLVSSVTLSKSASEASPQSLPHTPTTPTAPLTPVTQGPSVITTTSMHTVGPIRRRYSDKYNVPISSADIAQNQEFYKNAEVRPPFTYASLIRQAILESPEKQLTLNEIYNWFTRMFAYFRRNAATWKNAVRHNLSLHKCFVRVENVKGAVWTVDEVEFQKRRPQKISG
Summary of the method: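 A degenerate double-stranded DNA library, filled in with Klenow, was added at 0.1 µM to 0.4 µM His6-MBP-tagged mouse FoxP3 or FoxP1 fragment lacking the N-terminus, expressed in E. coli. Incubation lasted 30 min at room temperature in Tris pH 7.5 buffer with NaCl and MgCl2, after which complexes were collected on amylose resin, washed three times, digested with proteinase K to free the DNA, barcoded by PCR and sequenced by Illumina. Binding is the pooled-replicate reads-per-million enrichment of pull-down over input.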

| Sequence | binding signal |
| --- | --- |
| GATGATTGTTCTCCCAGCTGATGAATTTCCGGCCTCGAGTAAACAAATTTTCCTAATCTTTCTGTTCAAGCGCCATCTAC | 0.772 RPM ratio (pull-down/input) |
| GATGATTGTTCTCCCAGCTGATGAATTATCTCTGTCGAGTAAACAAATTTTCCTAATCTTTCTGTTCAAGCGCCATCTAC | 0.846 RPM ratio (pull-down/input) |
| GATGATTGTTCTCCCAGCTGATGAATTGCAACGCTCGAGTAAACAAATTTTCCTAATCTTTCTGTTCAAGCGCCATCTAC | 1.2 RPM ratio (pull-down/input) |
| GATGATTGTTCTCCCAGCTGATGAATTTAATTAGTCGAGTAAACAAATTTTCCTAATCTTTCTGTTCAAGCGCCATCTAC | 0.96 RPM ratio (pull-down/input) |
| GATGATTGTTCTCCCAGCTGATGAATTTCGGAATTCGAGTAAACAAATTTTCCTAATCTTTCTGTTCAAGCGCCATCTAC | 0.898 RPM ratio (pull-down/input) |
| GATGATTGTTCTCCCAGCTGATGAATTAAATCAGTCGAGTAAACAAATTTTCCTAATCTTTCTGTTCAAGCGCCATCTAC | 0.978 RPM ratio (pull-down/input) |
| GATGATTGTTCTCCCAGCTGATGAATTCTTTTCATCGAGTAAACAAATTTTCCTAATCTTTCTGTTCAAGCGCCATCTAC | 1.07 RPM ratio (pull-down/input) |
| GATGATTGTTCTCCCAGCTGATGAATTCATGGTGTCGAGTAAACAAATTTTCCTAATCTTTCTGTTCAAGCGCCATCTAC | 0.976 RPM ratio (pull-down/input) |
| GATGATTGTTCTCCCAGCTGATGAATTTAAAGTATCGAGTAAACAAATTTTCCTAATCTTTCTGTTCAAGCGCCATCTAC | 1.07 RPM ratio (pull-down/input) |
| GATGATTGTTCTCCCAGCTGATGAATTTAAGTCTTCGAGTAAACAAATTTTCCTAATCTTTCTGTTCAAGCGCCATCTAC | 0.922 RPM ratio (pull-down/input) |
| GATGATTGTTCTCCCAGCTGATGAATTAAGGTTGTCGAGTAAACAAATTTTCCTAATCTTTCTGTTCAAGCGCCATCTAC | 1 RPM ratio (pull-down/input) |
| GATGATTGTTCTCCCAGCTGATGAATTAACGTGATCGAGTAAACAAATTTTCCTAATCTTTCTGTTCAAGCGCCATCTAC | 0.878 RPM ratio (pull-down/input) |
| GATGATTGTTCTCCCAGCTGATGAATTTTGAGTTTCGAGTAAACAAATTTTCCTAATCTTTCTGTTCAAGCGCCATCTAC | 0.924 RPM ratio (pull-down/input) |
| GATGATTGTTCTCCCAGCTGATGAATTGGTGCTATCGAGTAAACAAATTTTCCTAATCTTTCTGTTCAAGCGCCATCTAC | 1.08 RPM ratio (pull-down/input) |
| GATGATTGTTCTCCCAGCTGATGAATTAGGGCTATCGAGTAAACAAATTTTCCTAATCTTTCTGTTCAAGCGCCATCTAC | 0.956 RPM ratio (pull-down/input) |
| GATGATTGTTCTCCCAGCTGATGAATTCAATCAGTCGAGTAAACAAATTTTCCTAATCTTTCTGTTCAAGCGCCATCTAC | 0.877 RPM ratio (pull-down/input) |
| GATGATTGTTCTCCCAGCTGATGAATTTAAACGCTCGAGTAAACAAATTTTCCTAATCTTTCTGTTCAAGCGCCATCTAC | 0.958 RPM ratio (pull-down/input) |
| GATGATTGTTCTCCCAGCTGATGAATTCAGCGGTTCGAGTAAACAAATTTTCCTAATCTTTCTGTTCAAGCGCCATCTAC | 0.859 RPM ratio (pull-down/input) |
| GATGATTGTTCTCCCAGCTGATGAATTTCACTGGTCGAGTAAACAAATTTTCCTAATCTTTCTGTTCAAGCGCCATCTAC | 0.806 RPM ratio (pull-down/input) |
| GATGATTGTTCTCCCAGCTGATGAATTTGTCATCTCGAGTAAACAAATTTTCCTAATCTTTCTGTTCAAGCGCCATCTAC | 1.19 RPM ratio (pull-down/input) |

| Sequence | binding signal |
| --- | --- |
| GATGATTGTTCTCCCAGCTGATGAATTTCTTCTTTCGAGTAAACAAATTTTCCTAATCTTTCTGTTCAAGCGCCATCTAC | 1.01 RPM ratio (pull-down/input) |
| GATGATTGTTCTCCCAGCTGATGAATTCAGGCTATCGAGTAAACAAATTTTCCTAATCTTTCTGTTCAAGCGCCATCTAC | 0.847 RPM ratio (pull-down/input) |
| GATGATTGTTCTCCCAGCTGATGAATTCATTCATTCGAGTAAACAAATTTTCCTAATCTTTCTGTTCAAGCGCCATCTAC | 0.842 RPM ratio (pull-down/input) |
| GATGATTGTTCTCCCAGCTGATGAATTAGTTCGCTCGAGTAAACAAATTTTCCTAATCTTTCTGTTCAAGCGCCATCTAC | 0.858 RPM ratio (pull-down/input) |
| GATGATTGTTCTCCCAGCTGATGAATTGACAACTTCGAGTAAACAAATTTTCCTAATCTTTCTGTTCAAGCGCCATCTAC | 1.49 RPM ratio (pull-down/input) |
| GATGATTGTTCTCCCAGCTGATGAATTCGAGCGTTCGAGTAAACAAATTTTCCTAATCTTTCTGTTCAAGCGCCATCTAC | 0.878 RPM ratio (pull-down/input) |
| GATGATTGTTCTCCCAGCTGATGAATTTTGTTCGTCGAGTAAACAAATTTTCCTAATCTTTCTGTTCAAGCGCCATCTAC | 0.983 RPM ratio (pull-down/input) |
| GATGATTGTTCTCCCAGCTGATGAATTCTCAGTTTCGAGTAAACAAATTTTCCTAATCTTTCTGTTCAAGCGCCATCTAC | 0.783 RPM ratio (pull-down/input) |
| GATGATTGTTCTCCCAGCTGATGAATTACACGTGTCGAGTAAACAAATTTTCCTAATCTTTCTGTTCAAGCGCCATCTAC | 1.18 RPM ratio (pull-down/input) |
| GATGATTGTTCTCCCAGCTGATGAATTACGGTGGTCGAGTAAACAAATTTTCCTAATCTTTCTGTTCAAGCGCCATCTAC | 0.954 RPM ratio (pull-down/input) |
| GATGATTGTTCTCCCAGCTGATGAATTCCTAGGATCGAGTAAACAAATTTTCCTAATCTTTCTGTTCAAGCGCCATCTAC | 0.842 RPM ratio (pull-down/input) |
| GATGATTGTTCTCCCAGCTGATGAATTACTCGAGTCGAGTAAACAAATTTTCCTAATCTTTCTGTTCAAGCGCCATCTAC | 0.914 RPM ratio (pull-down/input) |
| GATGATTGTTCTCCCAGCTGATGAATTGCCCAAATCGAGTAAACAAATTTTCCTAATCTTTCTGTTCAAGCGCCATCTAC | 1.09 RPM ratio (pull-down/input) |
| GATGATTGTTCTCCCAGCTGATGAATTCTCCGCCTCGAGTAAACAAATTTTCCTAATCTTTCTGTTCAAGCGCCATCTAC | 0.896 RPM ratio (pull-down/input) |
| GATGATTGTTCTCCCAGCTGATGAATTGTCCACGTCGAGTAAACAAATTTTCCTAATCTTTCTGTTCAAGCGCCATCTAC | 0.978 RPM ratio (pull-down/input) |
| GATGATTGTTCTCCCAGCTGATGAATTTATCCTCTCGAGTAAACAAATTTTCCTAATCTTTCTGTTCAAGCGCCATCTAC | 0.985 RPM ratio (pull-down/input) |
| GATGATTGTTCTCCCAGCTGATGAATTCGACAGGTCGAGTAAACAAATTTTCCTAATCTTTCTGTTCAAGCGCCATCTAC | 0.756 RPM ratio (pull-down/input) |
| GATGATTGTTCTCCCAGCTGATGAATTGGTGGACTCGAGTAAACAAATTTTCCTAATCTTTCTGTTCAAGCGCCATCTAC | 0.911 RPM ratio (pull-down/input) |
| GATGATTGTTCTCCCAGCTGATGAATTTATCTGTTCGAGTAAACAAATTTTCCTAATCTTTCTGTTCAAGCGCCATCTAC | 0.988 RPM ratio (pull-down/input) |
| GATGATTGTTCTCCCAGCTGATGAATTCGGCCGATCGAGTAAACAAATTTTCCTAATCTTTCTGTTCAAGCGCCATCTAC | 0.792 RPM ratio (pull-down/input) |
